# From the BET-seq Pho4 binding data (Le et al. 2018)
# The other results are listed elsewhere or left out. These are noisy estimates, calculated here from bound and input reads.
# Target: T1, Pho4 (S. cerevisiae) (UniProt P07270)
# T1 sequence: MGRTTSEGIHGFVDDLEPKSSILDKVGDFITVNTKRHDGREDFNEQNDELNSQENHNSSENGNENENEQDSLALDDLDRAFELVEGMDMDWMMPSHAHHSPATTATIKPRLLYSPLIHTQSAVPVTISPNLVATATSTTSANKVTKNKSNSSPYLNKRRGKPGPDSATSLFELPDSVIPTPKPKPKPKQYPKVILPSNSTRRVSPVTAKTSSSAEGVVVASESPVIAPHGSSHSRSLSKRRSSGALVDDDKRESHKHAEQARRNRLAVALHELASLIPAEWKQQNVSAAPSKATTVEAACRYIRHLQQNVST
# Assay: relative binding free energy (BET-seq); higher = weaker binding
# Conditions: reference: library average
row,Sequence,relative binding free energy [kcal/mol]
1,TGGTGCACGTGAAGAA,0.22
2,GGCTTCACGTGGACGT,0.28
3,CTGGTCACGTGAGGCA,0.2
4,GTGAGCACGTGGAGCG,-0.02
5,TGTGACACGTGGGTAT,-0.18
6,GCTTACACGTGAGTTT,0.29
7,TACGACACGTGGGGGG,-0.03
8,ATTTTCACGTGGTGGA,0.28
9,AGTCGCACGTGAGCTG,0.24
10,TGGTACACGTGAGTGG,0.38
11,TGCGGCACGTGAGATA,0.15
12,CTGGGCACGTGGTCTG,-0.2
13,TAGAGCACGTGGTTGC,-0.22
14,GTGTTCACGTGTCCGG,0.19
15,TGTTACACGTGGAGAT,0.01
16,GTCGTCACGTGCTGGA,0.12
17,AATGTCACGTGAGTTG,0.35
18,AATGGCACGTGTGAGA,-0.09
19,TGACACACGTGTTATT,0.15
20,GCTGGCACGTGCGGGG,-0.08
21,AGTATCACGTGTGGAA,0.21
22,AGGATCACGTGGGTGC,-0.09
23,TGTTGCACGTGTCTTG,-0.02
24,AGGGTCACGTGCGCTT,0.01
25,TGCAGCACGTGATAGG,0.14

row,Sequence,relative binding free energy [kcal/mol]
1,TTTATCACGTGTGGGA,0.18
2,AGAGTCACGTGGTTGC,0.2
3,GAGTTCACGTGGTGGT,0.29
4,TGTGTCACGTGCGGCA,0.13
5,TTTGTCACGTGCATGT,-0.11
6,GTAATCACGTGATAAG,0.33
7,ATCGGCACGTGATTTT,0.02
8,TTTTGCACGTGGGCGT,-0.13
9,GTGGTCACGTGGGCCT,-0.04
10,ATGTGCACGTGAAAGT,0.22
11,GTCGTCACGTGGTTGC,0.2
12,GAGTCCACGTGGAGGT,0.08
13,GGTATCACGTGTCGGC,0.34
14,CGTTTCACGTGTGGAC,0.46
15,TTAAACACGTGGCATT,0.03
16,CGTGTCACGTGGCGGC,-0.11
17,AGGCCCACGTGGGAGG,-0.21
18,TGTTCCACGTGTTGGG,0.17
19,CTGGTCACGTGGCGTT,0.1
20,TGTGGCACGTGTAACT,-0.08
21,ATGATCACGTGCTTTG,0.11
22,TTGGTCACGTGGGCAA,-0.04
23,TATGGCACGTGTGTGA,0.01
24,TGGTACACGTGAAAAG,0.44
25,AGTTGCACGTGTGGGA,0.03

row,Sequence,relative binding free energy [kcal/mol]
1,GTATACACGTGCATTT,0.1
2,TTGGTCACGTGAGAGG,0.45
3,ACAGTCACGTGAGGGA,0.33
4,GGATACACGTGGGACT,0.23
5,TTGTGCACGTGATGTT,0.11
6,GAGGGCACGTGTGGTC,0.02
7,CGTGTCACGTGAAAGT,0.26
8,TGCTGCACGTGTTTGA,-0.08
9,TAGGGCACGTGTAGAA,-0.04
10,ACAATCACGTGTATGG,0.21
11,CTGTTCACGTGTTGTA,0.13
12,TATATCACGTGATTGA,0.14
13,AGAGGCACGTGACGGG,0.05
14,GTTAGCACGTGTTATT,0.04
15,TGATGCACGTGTATAA,-0.02
16,AATCGCACGTGTTAGG,-0.01
17,GGAAGCACGTGGTTAT,-0.16
18,GAATTCACGTGGGTAA,0.28
19,GTTATCACGTGAGTAT,0.35
20,GTAGACACGTGGAGAT,0.09
21,CGTGTCACGTGTAGGA,0.11
22,GATAACACGTGGGCTT,0.05
23,TGCAGCACGTGCGGGG,-0.19
24,GGTATCACGTGATGCG,0.17
25,ATTTCCACGTGGTGAT,0.09

row,Sequence,relative binding free energy [kcal/mol]
1,TAGGTCACGTGAGAAG,0.33
2,TTTTTCACGTGCGTGT,0.22
3,TCCGTCACGTGGGGTA,-0.12
4,AGCTTCACGTGGAGTT,0.06
5,TAGTACACGTGTGGAG,0.23
6,ATTTCCACGTGTTTTT,0.05
7,ATTGACACGTGTGTAC,0.13
8,ATGGTCACGTGAGTTT,0.25
9,CTTGTCACGTGAGGGC,0.22
10,ATGGTCACGTGTTTTG,0.23
11,AATTTCACGTGGGCTA,0.05
12,GGTTTCACGTGAAGAG,0.51
13,AGTAGCACGTGTGAGC,-0.02
14,TGTGACACGTGTATTC,0.23
15,AAAGGCACGTGATGAA,0.07
16,CTTTGCACGTGGGATG,-0.05
17,TTTGGCACGTGTGTTA,0.01
18,TAGGACACGTGTGATG,0.2
19,GTATCCACGTGGATGT,0.15
20,TGGGCCACGTGGCGTA,-0.22
21,TGTGGCACGTGGCCAT,-0.25
22,ATGTACACGTGTTTGA,-0.01
23,TGTGTCACGTGGTGGA,0.02
24,TAGTCCACGTGGGGCT,-0.17
25,CTGGCCACGTGGTTTT,-0.06

row,Sequence,relative binding free energy [kcal/mol]
1,CGAGTCACGTGGTGAG,-0.07
2,TGACGCACGTGTGGGA,-0.07
3,ATAGTCACGTGTGGTT,0.13
4,CGATGCACGTGGTGAG,0.06
5,CTGGACACGTGAGTTT,0.35
6,TGTAGCACGTGGTGTG,-0.17
7,GGGACCACGTGTAATG,0.21
8,TTTAGCACGTGGTGGA,-0.12
9,CGATTCACGTGTGATT,0.37
10,AAAAACACGTGGGAGT,0.07
11,AAATTCACGTGTTGGC,0.26
12,TTATACACGTGCGTGT,-0.16
13,ATTGTCACGTGGACAT,0.12
14,TAAAACACGTGGGTAA,-0.04
15,TAGTGCACGTGTGTTG,-0.01
16,TGGTACACGTGATTGT,0.01
17,GTTCGCACGTGGGGCT,-0.18
18,GTAGTCACGTGCATGA,0.08
19,TCTCTCACGTGGGGAG,0.2
20,GATGGCACGTGGATGA,-0.04
21,CGTCACACGTGTGGGT,0.15
22,ACTGTCACGTGAGTGG,0.29
23,TGCTGCACGTGTGTTT,0.13
24,TGGAACACGTGCGTGA,0.17
25,GTACACACGTGAGTGT,0.27

row,Sequence,relative binding free energy [kcal/mol]
1,AATGTCACGTGAGCAG,0.23
2,AGCATCACGTGTAGGG,0.13
3,AAGGGCACGTGAGGTG,0.13
4,GACATCACGTGAGGTT,0.52
5,TATTTCACGTGTATAC,0.18
6,CTTTCCACGTGTTTTT,0.05
7,TATTGCACGTGGTCTT,-0.08
8,GATGGCACGTGAGGTA,0.25
9,AGGTACACGTGACGTG,0.21
10,GTTAGCACGTGGCGGA,-0.08
11,GTTAGCACGTGATGCT,-0.09
12,GGATTCACGTGGGCCG,0.29
13,TAGAGCACGTGTGCGG,-0.09
14,TTAATCACGTGGTTAC,0.17
15,ATAGGCACGTGGATTG,-0.15
16,TTTATCACGTGTCAAG,0.21
17,TGGGTCACGTGTGTGT,0.19
18,AAGTTCACGTGGCAAG,0.26
19,GTTGGCACGTGTGCGC,-0.07
20,AAAGGCACGTGTGAGG,-0.04
21,GCGTTCACGTGTGCGG,0.18
